Measurements: article PMC12136788
The list shows a part of the results.

T1: UNK ZnF1-3 (human, UniProt Q9C0B0 31-174)
T1 sequence: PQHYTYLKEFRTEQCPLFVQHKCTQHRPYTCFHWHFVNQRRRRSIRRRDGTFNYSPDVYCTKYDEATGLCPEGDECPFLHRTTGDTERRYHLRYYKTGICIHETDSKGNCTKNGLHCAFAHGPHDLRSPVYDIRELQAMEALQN

B1: chr10:1038518:1038519:+_ENSG00000107937_ENST00000545048|hu_hu|hu_hu_hu_mus_False|48_48 (ssRNA)
RNA: GGGAGUUCUACAGUCCGACGAUCCAGUCUGUCAUGGUAAUUCUGUUGAGUAAAUUUGACUUUUCUCAUAUAAAAAUGUCGAAUCCGAUGUAUUUGGUAAUGUUUAUGAAUAACCGUUGGAGUCUUUCGUUGAGUCUUGGAUAACAACAGAGGAUUGAGCAUCA
B2: chr6:114281168:114281169:-_ENSG00000196591_ENST00000368632|hu_hu|hu_hu_hu_mus_True|8_88 (ssRNA)
RNA: GGGAGUUCUACAGUCCGACGAUCUUCCAUUUUUCGGUAUAAACCAUAAUUUAACAGCAAGUUAUGAGUCAUCCGGAUUCUAUGAGGCUUCAUGGGAUGACCCUGGCCAUAAUAAUAAUUGCCAAUAUCACAGAUUCAGUAGUACAACAGAGGAUUGAGCAUCA
B3: chrX:20248820:20248821:+_ENSMUSG00000001924_ENSMUST00000001989|mus_mus|mus_mus_mus_hu_True|48_48 (ssRNA)
RNA: GGGAGUUCUACAGUCCGACGAUCGGCGAAGUCCGUCACCACAAAGUCAGGUUCUGCCAGUGAGGCCACCAAGGAUUUAAAGCUAAUCUUUUUCGGUACUUUGACCUGACUGACGAUGCCUCCACGGAUGUAGUCGGAGAAGUUCAACAGAGGAUUGAGCAUCA
B4: 57307908_57312862_387_CDS_ENSG00000128050_ENST00000264221|human|control|control (ssRNA)
RNA: GGGAGUUCUACAGUCCGACGAUCACCUGCUUCCUGUAAUAACUGAAAAAUACAACUGGUGAUUUUAUUUGAGAUUGCAGCUUUUCCUUCCAGGUGGUUUUUUCUAGCUGCAUUUCCUGCUGUAAUCUGGUCCUUGGACUGCAGCAACAGAGGAUUGAGCAUCA
B5: chr3:9412954:9412955:+_ENSG00000134077_ENST00000452837|hu_mus|hu_hu_hu_mus_False|1_58 (ssRNA)
RNA: GGGAGUUCUACAGUCCGACGAUCGGUUGAUAUCUCUUCUUUGAUGGCUGGAUUUUCAUAAUAGUCCAAGAUAUGUGAAUCUAAAGCGCUGCUGGCAUGCUUUUUCUUACCAUCUUUCUCAUCUGCUUUGUCUCCUUGUCCAUUCAACAGAGGAUUGAGCAUCA
B6: 79658811_79658931_1260_3pUTR_ENSMUSG00000089715_ENSMUST00000109627|mouse|control|control (ssRNA)
RNA: GGGAGUUCUACAGUCCGACGAUCUGAGGGGCAGCCGGAAGAGCUGGAGCUGUGUGCGUCAAAGGGGGCAGCAGCUGGGGUGGCCAGGAGCAGCCCAGGCCCCGAGGAGGCCACAUCGGCUUUGCCCGCAGUAGAGGGCGCCAGCAACAGAGGAUUGAGCAUCA
B7: 118898749_118898869_788_3pUTR_ENSMUSG00000078584_ENSMUST00000141112|mouse|control|control (ssRNA)
RNA: GGGAGUUCUACAGUCCGACGAUCCCCACAGUUCUGUGACUCCUUACCAUCAAACUGAGAGCAAAACCAGCAGCUACAUCAUCAAGAUCAUCGUCCAAGUAGUUCAUAAUUCACCCAAAAACCCAUAGUCCCCCCUCACCCCCCCAACAGAGGAUUGAGCAUCA
B8: chrX:98878078:98878079:+_ENSMUSG00000034160_ENSMUST00000044475|mus_hu|FALSE|FALSE (ssRNA)
RNA: GGGAGUUCUACAGUCCGACGAUCACAUUUUAGCUUAAAACCUUAUCUCAAGAGAAUCAUAUACACUUCACAUGAAUAAAAAUACCUGAAACCAAACAUUUUUAAAAGCUCCAGUACCCAAAAUAUAAAGAAAAAAAAAUCCAGCAACAGAGGAUUGAGCAUCA
B9: chr7:151048522:151048523:+_ENSG00000013374_ENST00000566856|hu_mus|FALSE|FALSE (ssRNA)
RNA: GGGAGUUCUACAGUCCGACGAUCCUGUUUCUUAUUUAUUACGAUCUUGAUGUAAUUUUCUUGAAAUCCGAAAGUUUCAGCUAUUUGACACCUCAGGUCUCUACCAGUGACAUGCAAGCGGGUCUCCAACAAGCUUUUCUUAUCCAACAGAGGAUUGAGCAUCA
B10: chr3:176767854:176767855:-_ENSG00000177565_ENST00000430069|hu_hu|hu_hu_hu_mus_False|48_48 (ssRNA)
RNA: GGGAGUUCUACAGUCCGACGAUCGACAUCCUUGUUACUGGGCACGUCCUGCCCUCCUUCCCGUAUGCAGUGUCUAAGCACGAGCUGUGUAGAGCCACUCGUGCUGUUCUCACUGAGGUUCCAGAUUCUUGCCGUGGAGUCUCCCAACAGAGGAUUGAGCAUCA
B11: chr5:143665338:143665339:-_ENSMUSG00000029580_ENSMUST00000100497|mus_mus|FALSE|FALSE (ssRNA)
RNA: GGGAGUUCUACAGUCCGACGAUCUUUUUAAAUCCUGAGUCAAAAGCGCCAAAACAAAACAAAAAAACUUAAAAAAAAAAAAAAAAAAAAAAAAAAAAACUUUAAAAAAAAUUUAAAAAAACAAAGCCAUGCCAAUGUUGUCUCCAACAGAGGAUUGAGCAUCA
B12: chr2:104499440:104499441:+_ENSMUSG00000027176_ENSMUST00000028599|mus_hu|FALSE|FALSE (ssRNA)
RNA: GGGAGUUCUACAGUCCGACGAUCUUCUCCAGACUUCUCAGGAGGAAGGCUUCCAGAUGUUAAAACUCGUUCAAACAAAACUCGGGUAUUAUUGUCCUCAUUGAGGUGAGAAAGAUAGUCAAUAUAGGCCAGGACAUACUCUGGCAACAGAGGAUUGAGCAUCA
B13: chr7:149068622:149068623:-_ENSMUSG00000025139_ENSMUST00000001950|mus_hu|mus_mus_mus_hu_False|1_88 (ssRNA)
RNA: GGGAGUUCUACAGUCCGACGAUCGUGAGGCCUCUGAGUGUGGCUUGUGCUCUGCAGUGGGUUAGAGUUGUUAAUAUCACGGAACAUACCAUCUAGAACGUUCCAGUCCCGCCUGACACCUUCAUUCCCAAUGGAGAAUCUGCUCAACAGAGGAUUGAGCAUCA
B14: chr18:35833404:35833405:-_ENSMUSG00000024350_ENSMUST00000025208|mus_mus|motif|central (ssRNA)
RNA: GGGAGUUCUACAGUCCGACGAUCCCUAGACAUAUGACCUAGGCCGACCACUCAUCCUCUCUGGCCAAUUCAUAAAAGGGCGGACAUACCGGUUUCACAAACUGUUAUGAGGAAUAAGUGAAAAAACAAAAUAAAACAGAACACCAACAGAGGAUUGAGCAUCA
B15: 80942273_80942393_173_CDS_ENSG00000147586_ENST00000276585|human|control|control (ssRNA)
RNA: GGGAGUUCUACAGUCCGACGAUCCUGUAGGGGCUCCACCUUCUGUAGAAGCUCCGAGUGCCGCUCCAACGCGCUCGCGAAACCGCCUGCGCGCGUCUUAGGCUCCUUGGCAUUGGAACUACCACUUUCGGAUCCACUCUCAGUCAACAGAGGAUUGAGCAUCA
B16: chr1:60041781:60041782:+_ENSMUSG00000041040_ENSMUST00000036540|mus_hu|mus_mus_mus_hu_False|48_78 (ssRNA)
RNA: GGGAGUUCUACAGUCCGACGAUCAAGUUUACAAUAGUAAAGUAAAUGCAGUAGUGGAAUGGCAAGUUUUAUUUUCCUUCACAAAAGAAAACCUCAGUAACCCAGUCCUAGUCUUGGACAUAGUGAAAGCUAUAAAUUCUGACUCAACAGAGGAUUGAGCAUCA
B17: chr3:88516089:88516090:+_ENSMUSG00000028060_ENSMUST00000029696|mus_hu|FALSE|FALSE (ssRNA)
RNA: GGGAGUUCUACAGUCCGACGAUCAUUGACCAAACAGUAGUAAAAUACAAAUAAAACUUUCUUUAUGUCAGAACUGGGGCUAUUCACCUGGAAAAGGCUGACCAGGUCAAAUGUGUAUGGGAACGACCCUGUUAGGAUGCUUUGCAACAGAGGAUUGAGCAUCA
B18: 53846149_53848618_101_5pUTR_ENSG00000197111_ENST00000546463|human|control|control (ssRNA)
RNA: GGGAGUUCUACAGUCCGACGAUCCAUUUAAUCCACCUUCAAUCACACCGGUGUCCAUGUCGAGCAGUGUUCUGGGGAGCUGGACUUUGAGUGGUCAAGUCUUUGGUCACUGGUUGGGGGUGAAAGCCAAAAACUGCAGGCGCGCAACAGAGGAUUGAGCAUCA
B19: 115421974_115422094_2132_CDS_ENSG00000165185_ENST00000337530|human|control|control (ssRNA)
RNA: GGGAGUUCUACAGUCCGACGAUCGAGGCAGUAAGGGCACUGUUUGUGUCCCCGGGAAUGCUCAUGGUAGAUCUUCCCGUGACACACUCUGGUGGAGCCGCUCCGACUCUCCCGCUUGACGCUGUCCGUCCGGGCAAAGUAGGGCAACAGAGGAUUGAGCAUCA
B20: 10583388_10583684_1091_CDS_ENSG00000115758_ENST00000405333|human|control|control (ssRNA)
RNA: GGGAGUUCUACAGUCCGACGAUCAGGAAAGCCACCGCCAAUAUCAAGCAGAUACAUGCUGAAACCAACCUCAGCCCCCAUGUCAAAAACACAGCGGGCAUCAGAGAUUGCCUGCACGAAGGUCUCAGGAUCGGUACAGCCGCUCAACAGAGGAUUGAGCAUCA
B21: chr5:37680062:37680063:+_ENSMUSG00000029121_ENSMUST00000031004|mus_hu|mus_mus_mus_hu_False|8_18 (ssRNA)
RNA: GGGAGUUCUACAGUCCGACGAUCUUUGGGUGUAGCUGGUACCUCGUACACAGGACCGUCAUACAUGCCCCUGGAAACCCCUUGCAAUCCAAAAACCUUAUUCCUGAUUUUGACGCGCUGGUAGAGAUGCUCUGGGAACGCCUUCAACAGAGGAUUGAGCAUCA
B22: chr10:71978566:71978567:-_ENSG00000180817_ENST00000373232|hu_mus|FALSE|FALSE (ssRNA)
RNA: GGGAGUUCUACAGUCCGACGAUCUAAAGGGUCCUUUGUAGCAAUCUCCAUUUUGGCGUUGGACCAGCGUGGAACCUCAACCACCAUGUGGAACACAUCCUUGUCUGCAUAAAUUGGAACAUCAUGAAAUGGAGAAAUGUACUGCAACAGAGGAUUGAGCAUCA

Target: T1, UNK ZnF1-3
Test: nsRBNS (natural sequence RNA bind-n-seq); RBNS binding buffer (assumed for nsRBNS): 25 mM Tris pH 7.5, 150 mM KCl, 3 mM MgCl2, 0.01% Triton X-100, 500 ug/ml BSA, 20 U/ml SUPERase-In, 4 C; UNK is unkempt and MSI1 is Musashi-1; names of the RNAs are library labels; protein concentration not given here; high values mean tight binding

Row | Binder | binding signal
1 | B1 | 0.525 enrichment R
2 | B2 | 0.908 enrichment R
3 | B3 | 0.869 enrichment R
4 | B4 | 0.599 enrichment R
5 | B5 | 0.278 enrichment R
6 | B6 | 1.26 enrichment R
7 | B7 | 2.26 enrichment R
8 | B8 | 2.84 enrichment R
9 | B9 | 0.658 enrichment R
10 | B10 | 0.436 enrichment R
11 | B11 | 2.58 enrichment R
12 | B12 | 1.3 enrichment R
13 | B13 | 0.748 enrichment R
14 | B14 | 1 enrichment R
15 | B15 | 0.289 enrichment R
16 | B16 | 0.706 enrichment R
17 | B17 | 1.31 enrichment R
18 | B18 | 1.17 enrichment R
19 | B19 | 0.174 enrichment R
20 | B20 | 1.22 enrichment R
21 | B21 | 0.951 enrichment R
22 | B22 | 0.893 enrichment R
